Measured values as given in PubChem BioAssay AID1346428 (National Center for Advancing Translational Sciences (NCATS), 2018).
In all, about 48,000 compounds went through this assay and about 1,200 (2.5%) were called active. About 2% were inconclusive and are not listed.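 The calls were made as follows: active = activation of at least 60% and not above a set upper limit (about 1 call in 100 departs from these limits); inconclusive = activation of 40% to 60%, or above that upper limit; inactive = activation under 40%.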 The list shows a part of the results.

Each compound was assayed against Probable G-protein coupled receptor 32 (Homo sapiens) (UniProt O75388) (assay: qHTS for Agonists of Human Resolvin D1 Receptor DRV1). Settings: CHO-K1 GPR32 beta-arrestin PathHunter luminescence, 90 min; at 76.9 µM; stronger effect = higher value; zero percent set by DMSO-only wells.
Procedure, shortened: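 PathHunter enzyme-fragment complementation, CHO-K1 GPR32 stable line; 2,500 cells/well, overnight attach; cpd 90 min 37 °C 5% CO2; detection reagent 1 h RT; chemiluminescence. DMSO = EC0.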
Also: 0% is about no effect.

Sequence of UniProt O75388 (O75388 whole entry, looked up, the tested form may be a part): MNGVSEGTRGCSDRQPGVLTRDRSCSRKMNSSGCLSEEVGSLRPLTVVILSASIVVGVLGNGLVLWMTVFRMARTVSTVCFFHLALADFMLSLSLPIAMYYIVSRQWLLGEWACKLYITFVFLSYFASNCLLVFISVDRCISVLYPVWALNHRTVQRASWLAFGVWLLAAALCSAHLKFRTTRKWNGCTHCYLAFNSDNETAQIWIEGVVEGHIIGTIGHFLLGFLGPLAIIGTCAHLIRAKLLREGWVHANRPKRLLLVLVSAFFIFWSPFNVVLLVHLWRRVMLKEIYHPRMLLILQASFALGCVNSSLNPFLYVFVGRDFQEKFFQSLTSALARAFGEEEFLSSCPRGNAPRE

activation, inactive:
Cc1ccc(C2CC(=O)n3nc(-c4ccc(F)cc4)nc3S2)cc1 (stereo not drawn) 24.7%
CCCc1cnc2c(c1SCC(=O)Nc1ccc([N+](=O)[O-])cc1)c(=O)n(C)c(=O)n2C -4.89%
Cc1ccc(NC(=O)Cn2c(=O)n(CCC(=O)N3CCc4ccccc4C3)c(=O)c3ccccc32)c(C)c1 -9.6%
COc1ccc(C2c3c(-c4ccccc4)n[nH]c3C(=O)N2c2ccc(C(=O)O)cc2)c(OC)c1 (stereo not drawn) 8.92%
COC(=O)c1ccc2c(c1)sc(=NC(=O)c1ccc(S(=O)(=O)N3CCCCC3)cc1)n2C 6.27%
Cc1ccc(-c2cnc(C3CC3)o2)cc1S(=O)(=O)Nc1cccc(C#N)c1 21.5%
COc1cc(NC(=O)Cn2c(-c3ccccc3)cc(C(C)=O)c2C)cc(OC)c1 -13.2%
Cc1ccc(-c2c(CN3CCN(c4cccc(C)c4C)CC3)csc2C)cc1 -21.9%
CN(Cc1ccccc1)C(=O)CSc1c2c(nc3ccc(Cl)cc13)CCCC2 -9.96%
Cc1cc(O)c(C(c2ccccc2)N2CCC(C)CC2)c(=O)n1Cc1ccco1 (stereo not drawn) 3.01%
Cc1ccc(CCNC(=O)c2cc(-c3ccccc3)n[nH]2)cc1 32.3%
CC(=O)c1ccc(NC(=O)CSc2nnc3ccc(-c4ccc(F)cc4)nn23)cc1 10.1%
CCN(C(=O)c1sc2nc3n(c(=O)c2c1C)CCCC3)c1ccccc1F -28.8%
Cc1cccc(NC(=O)C2CCCN2S(=O)(=O)c2cccc3nsnc23)c1C (stereo not drawn) 8.79%
CN(C)c1ccc(C(CNC(=O)c2ccc(C(C)(C)C)cc2)N2CCCC2)cc1 (stereo not drawn) -15.4%
Cc1cn2c(=O)cc(COc3ccc(NC(=O)c4ccc(C(C)(C)C)cc4)cc3)nc2s1 -0.341%
COc1ccc(CNC(=O)CCc2c(C)nn(-c3ccc(N4CCOCC4)nn3)c2C)c(OC)c1 6.73%
CCC1=C(c2ccc(C)cc2)S(=O)(=O)N=C1N1CCC(C(=O)Nc2ccccc2C(=O)OC)CC1 18.1%
Cc1ccc(C)c(NC(=O)c2cnn(-c3ccc(F)cc3F)c2C2CCNCC2)c1 19%
Fc1ccccc1C(NCCc1ccc(Cl)cc1)c1nnc(-c2ccccc2)o1 (stereo not drawn) -34.7%
CCCC12CN3CC(CCC)(CN(C1)C3c1ccc(OCc3ccccc3)cc1)C2=O (stereo not drawn) -1.87%
Cc1cccc(C)c1NC(=O)CCSc1nc(-c2ccc3c(c2)OCO3)cc(C(F)(F)F)n1 -1.52%
O=C(CSc1ncc2c(n1)-c1ccccc1N(Cc1ccc(Cl)cc1)S2(=O)=O)c1ccc(Cl)cc1 -15.9%
COc1ccccc1NC(=O)CN(C)S(=O)(=O)c1cccc2cccnc12 -7.09%
Cc1ccc(Nc2ccc(N3CCN(C(=O)c4cccc([N+](=O)[O-])c4)CC3)nn2)cc1 -17.6%
CC(=O)N1CCc2c(sc3c2c(=O)n(CCc2ccccc2)c(=O)n3Cc2ccc(F)cc2)C1 -13.5%
CCc1ccc(-n2c(CCC(=O)O)ccc2-c2cccs2)cc1 9.51%
COc1ccc(-n2ccn(CC(=O)Nc3ccccc3C(F)(F)F)c(=O)c2=O)cc1OC -8.51%
CCOc1ccc(NC(=O)c2sc3nc(-c4ccc(OC)cc4)cn3c2C)cc1 -9.56%
Cc1ccccc1NC(=O)Cn1c(=O)n(CCCCCC(=O)NCc2ccc3c(c2)OCO3)c(=O)c2sccc21 -22.2%
Cc1c(Cl)cccc1NC(=O)CSc1nc(=O)n(CCN2CCOCC2)c2c1CCC2 -11.4%
COc1ccc(-c2nsc(NC(=O)c3ccccc3Br)n2)cc1 19.9%
COc1cc(NC(=O)C2CCCN(S(=O)(=O)c3cn(C)cn3)C2)cc(OC)c1 (stereo not drawn) -6.61%
CCOC(=O)c1cc2c(=O)n3ccccc3nc2n(CC(C)C)c1=NC(=O)C(C)Oc1ccccc1 (stereo not drawn) -7.45%
CC(=O)Nc1ccc(NCc2nnc3n2CCCCC3)cc1 -8.91%
CCc1ccccc1NC(=O)CCc1c(C)nc2cc(-c3ccccc3)nn2c1C 22.2%
CCOc1ccc(NC(=O)CCS(=O)(=O)c2cc3c4c(c2)CCN4C(=O)CC3)cc1 -13%
Cc1ccc(Nc2ccc(N3CCN(C(=O)c4ccc([N+](=O)[O-])cc4Cl)CC3)nn2)cc1 24.9%
Cc1nnc(N2CCN(C(=O)Nc3cc(F)ccc3F)CC2)c2nn(-c3ccc(Cl)cc3)c(C)c12 8.41%
O=C(NC1CC(=O)N(c2ccc(Cl)cc2)C1)C(=O)c1c[nH]c2ccccc12 (stereo not drawn) 20.2%
CC(=O)OC(C)OC(=O)C(C)c1ccc(-c2ccccc2)c(F)c1 (stereo not drawn) 7.81%
Cc1cccc(C)c1NC(=O)CSc1nc(-c2cccs2)cc(C(F)(F)F)n1 -9.84%
CC(C)NC(=O)CCSc1nc(-c2ccc3c(c2)OCO3)cc(C(F)(F)F)n1 -1.19%
CC(C)CCn1c(SCc2c(F)cccc2Cl)nc2ccsc2c1=O -17.8%
Cc1cn2c(=O)cc(COc3ccc(C(C)(C)C)cc3)nc2s1 -12.7%
O=C(Nc1ccc(F)c(Cl)c1)C1CCCN(S(=O)(=O)c2cccc3nsnc23)C1 (stereo not drawn) -2.39%
CCOc1ccccc1N(CC)C(=O)c1ccc2c(=O)n3c(nc2c1)CCCCC3 -16.4%
Nc1nonc1-c1nc2ccccc2n1CC(=O)Nc1ccccc1C(=O)O -4.11%
CN(c1nccc(=O)[nH]1)C1CCN(c2nc3ccccc3n2Cc2ccc(F)cc2)CC1 -3.93%
CN(C)S(=O)(=O)N1CCC(N2CCN(Cc3ccc(F)cc3)C(=O)C2=O)CC1 -8.07%
CCOc1ccc(CCNC(=O)CSCc2nc(-c3cccc(C)c3)oc2C)cc1OCC -12.1%
N#Cc1ccccc1Cn1c(SCC(=O)NCc2ccccc2)nc2ccccc21 -12.7%
CCc1cccc2c(-c3ccccc3)nc(SCC(=O)Nc3ccc(OC)cc3)nc12 2.63%
CCOc1ccc2nc(NC(=O)c3nc(SC(C)C)ncc3Cl)sc2c1 -11.9%
C[N+](C)(C)CC(=O)O -0.955%
CC1CCN(C(=O)Cn2c(=O)n(-c3ccc(Cl)cc3)c(=O)c3c4c(sc32)CCC4)CC1 19.7%
O=C(Cn1c(=O)c2cccn2c2ccc(F)cc21)NCc1cccc(Cl)c1 -5.63%
O=C(O)c1ccccc1C(=O)Nc1ccc(S(=O)(=O)Nc2nccs2)cc1 -5.92%
CN(C)S(=O)(=O)c1ccc(C(=O)N(Cc2cccnc2)c2nc3c(F)cc(F)cc3s2)cc1 -1.71%
Cc1cc2nn(-c3ccccc3)nc2cc1NC(=O)Cc1ccc(Cl)cc1 -13.1%
CC(C)N(Cc1ccccc1)S(=O)(=O)c1ccc(N2CCCCS2(=O)=O)cc1 4.16%
COc1ccccc1NC(=O)C(=O)NCC(c1cccnc1)N1CCc2ccccc2C1 (stereo not drawn) -0.94%
O=C(NCc1ccc(F)cc1)c1ccc2oc(=O)n(Cc3ccccc3)c2c1 10.5%
COC(=O)c1ccc(NC(=O)CCc2c(C)nn(-c3ccc(N4CCCCC4)nn3)c2C)cc1 -20.2%
COc1ccc(-n2nc(C(=O)Nc3cc(C)ccn3)c3c4ccccc4n(C)c3c2=O)cc1Cl 11.8%
CC(=O)Nc1nonc1-c1nnc(SCc2ccccc2)n1C -0.677%
COC(=O)c1cccc(CN2C(=O)SC(Nc3ccc(C)cc3)C2=O)c1 (stereo not drawn) -90%
Cc1ccccc1CNC(=O)C(=O)NCC(c1cccs1)S(=O)(=O)c1cccs1 (stereo not drawn) -2.5%
C=Cc1ccc(Cn2c(SCC(=O)N3CCN(c4ccc(F)cc4)CC3)nc3ccccc32)cc1 -9.74%
O=c1c2oc3ccccc3c2n(Cc2cccc(F)c2)c(=O)n1Cc1ccc2c(c1)OCO2 -23.8%
CCOc1ccc(-c2cc(C(=O)NCCc3ccc(OC)c(OC)c3)[nH]n2)cc1 3.68%
CN1CC(=O)N(CC(=O)Nc2ccc(OC(F)(F)F)cc2)c2ccccc2C1=O -32.6%
CCc1ccc(NC(=O)Cn2c(=O)c3cc(Cl)ccc3n3nncc23)cc1 -3.2%
COc1cc(C2CC(=O)Nc3c2c(=O)n(C)c2ncnn32)cc(OC)c1OC (stereo not drawn) -1.46%
CCOC(=O)c1c(NC(=O)c2cc(CC)on2)sc(C(C)=O)c1C -8.42%
C[C@@]12CCC[C@H]1[C@@H]1CC[C@H]3C[C@@H](O)CC[C@]3(C)[C@H]1CC2 -41.7%
Cc1ccc(S(=O)(=O)c2cn(CC(=O)Nc3ccc(Cl)cc3)c3ccc(F)cc3c2=O)cc1C -3.32%
Nc1cc(Cl)c(NC2=NCCN2)c(Cl)c1 -0.0115%
Cc1cccc(NC(=O)/C(C#N)=C/c2ccc(C)o2)c1 -4.72%
CCOC(=O)c1ccc(NC(=O)CCc2nc3cccnc3n2Cc2cccs2)cc1 45.7%
CC(=O)c1ccc(N2CCN(c3ccc4cc(S(=O)(=O)N5CCC(C)CC5)ccc4n3)CC2)cc1 -2.84%
COc1ccc(N2CCN(C(=O)C3CCN(c4nc5ccc(C)cc5[nH]4)CC3)CC2)cc1 -1.16%

activation, active:
CCOC(=O)c1ccc(NC(=O)CN2C(=O)C(C)(C)c3ccccc32)cc1 109%
